# Measurements taken from the supplement of paper PMC3334620.
# Over roughly 33,000 sequences, “E-score (-0.5 to 0.5)” has its median near -0.054; the highest 2% begin near 0.39. The list shows a part of the results.
# Target: Ylr278c (UniProt Q05854)
# Assay: PBM E-score (8-mer binding enrichment) (E-score (-0.5 to 0.5)); higher = stronger / more preferred TF binding; most listed sequences are background and not binding sites
# Conditions: protein concentration: 200 nM; construct: GST-DNA-binding domain
# Outline: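 E-scores (a modified Wilcoxon-Mann-Whitney statistic) were assigned by the Universal PBM Analysis Suite to every ungapped eight-base word pooled with its reverse complement. The input came from universal all-10-mer Agilent arrays made double-stranded by primer extension and probed with GST-tagged yeast transcription factors at about 100-200 nM. Fluorescent anti-GST detected bound protein, and masliner normalised the scans.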
row,Sequence,PBM E-score
1,TATGCGAA,-0.0768
2,CTTAGGCA,-0.285
3,ACCGTCAC,-0.119
4,ACACATTA,-0.226
5,ACGCATAA,-0.0989
6,AGCCCTGG,-0.298
7,GGCCCTCA,-0.189
8,GCCACTAC,0.0805
9,GGCACGTA,-0.0805
10,AGTCGGAG,0.41
11,GCAACGGC,0.11
12,ATACGGGG,0.219
13,CTTTCGAC,-0.124
14,AAACTGGC,-0.0909
15,ATCAGAAC,-0.0482
16,AGGGGGTA,-0.331
17,AGCTGGCA,-0.11
18,CCTTGCGA,-0.0612
19,ATTATACC,0.206
20,ATATTGCA,-0.0264
21,TAGCCAAA,0.0528
22,TGACCCAA,-0.235
23,CTCTAGTC,-0.16
24,GCCTTCAA,-0.141
25,ATATCGCC,0.185

row,Sequence,PBM E-score
1,AGTGCATG,-0.232
2,AACACACT,-0.175
3,CCTAGCGC,-0.136
4,CAACCGTC,-0.0832
5,ACTTTCAC,-0.0011
6,ACAAAGCT,0.0371
7,AATAGTAG,0.0073
8,AAAGTACG,-0.00022
9,GTCATACA,-0.108
10,GTTTGATA,0.0927
11,CGCAATTA,0.23
12,CTATCAGC,-0.084
13,CCATTGAA,-0.0444
14,GGATCGTA,-0.00905
15,GTCGGCTA,0.088
16,CTAACCCC,0.0848
17,GAGGGATA,-0.0711
18,ATTACGTG,-0.276
19,CGCTTACG,0.0152
20,GGATCTAA,0.0656
21,ACACTCCA,-0.111
22,CCAAGCAG,-0.0723
23,AGGCGTGG,-0.332
24,AACCAGTC,0.0517
25,AATCTGTG,-0.166

row,Sequence,PBM E-score
1,AACTAGCG,0.21
2,CTCATGAC,-0.0271
3,AGACGGCG,0.0243
4,AGTCTTTA,-0.268
5,AGTATCAT,-0.00037
6,CTCGCGAC,0.00925
7,CCAAGACA,-0.0449
8,TACGGGCA,-0.0848
9,ATAGATAG,-0.174
10,ACGCACAT,-0.12
11,ACACGTCA,-0.242
12,ATTCCTCA,-0.094
13,CCGAAACA,0.282
14,CTTGACTA,-0.11
15,AGCTGGAA,-0.176
16,CAATCGAC,-0.257
17,ACGAGAGT,-0.131
18,GTTATTTA,-0.0229
19,AGCTTAGC,-0.152
20,AAAGCTGA,-0.206
21,AGGTTTCC,-0.0429
22,AGAGGAAC,-0.247
23,CTCCTCCA,-0.189
24,ATGAATAG,0.0237
25,AGCGTTAG,-0.142

row,Sequence,PBM E-score
1,CCCTTAGG,-0.228
2,GTGAAAAA,0.037
3,ATGAACAG,-0.146
4,CAGGCGTC,-0.1
5,ACTGACAG,-0.0502
6,AGGCTGAC,-0.265
7,CCATAATC,-0.0771
8,ATGCCGTG,0.0916
9,AAGCTAGC,-0.221
10,CAGAGAAG,-0.15
11,GGAATAGA,0.265
12,GAAGTTGA,-0.0386
13,AAGGGTAT,-0.0768
14,CGACCGAA,0.148
15,AGATCTAA,-0.201
16,AGAGTGCG,-0.0736
17,GCCCGTAA,0.0898
18,AATTCATG,0.0206
19,CCACAAGG,-0.18
20,GCGGATCC,0.271
21,CCACTAGC,-0.289
22,CACCGATC,0.165
23,CAATGCCC,0.147
24,AGGTGAAA,-0.0732
25,ACTCACAA,-0.163

row,Sequence,PBM E-score
1,GAACGCGC,0.171
2,GCGACGAC,-0.126
3,AGAGTGGA,-0.0459
4,CCATAGAG,-0.198
5,GCCGTTCA,0.107
6,GAGACCTA,-0.113
7,ACCACAAT,0.0158
8,GCCGCCGC,0.24
9,ATGCCGAC,0.318
10,ATGGGGAC,0.0826
11,ACCTCTCA,0.0413
12,CTACTAAC,-0.0137
13,AACGCCAC,-0.146
14,CATGATTA,-0.0982
15,CAAAGACG,-0.0301
16,CTCATCGA,-0.21
17,AAAGCAGC,-0.0496
18,ACTACCCG,0.119
19,AGACGGTG,-0.0786
20,CAGCAATG,-0.367
21,CAAGACAG,-0.0725
22,ACGAGTTC,-0.155
23,CTACCTTC,-0.117
24,ACACAGAT,-0.225
25,CCCAGCGA,-0.25

row,Sequence,PBM E-score
1,GGCCAACA,0.0994
2,ATTCTCTG,-0.176
3,GAGCTATA,-0.178
4,AGTTATCA,-0.0406
5,CGCCTCCG,0.398
6,AGAACTAT,-0.0308
7,ACCCGAGC,0.211
8,TGTATCAA,-0.0655
9,AGTGCTGG,-0.185
10,GCCAGACA,0.018
11,GGTGTCAC,0.102
12,CTACTGAC,-0.0949
13,ATACCGGG,0.334
14,ACAAACTG,-0.222
15,AGGCGAGG,-0.11
16,CGGGAAGA,0.305
17,ATGTTATC,0.0853
18,AGGCAAAT,-0.00215
19,AAAAACAG,-0.137
20,TCGACCCA,-0.167
21,ATGCATGC,-0.244
22,AACGGAAC,0.322
23,AGCAATAA,-0.206
24,GACTTGCA,0.0343
25,AGATCGCT,0.0168

row,Sequence,PBM E-score
1,ATTCAAAT,-0.132
2,CTCGCTAA,0.0133
3,AGTTGTAT,-0.0235
4,ATTACGGG,0.0389
5,GAGCGTTA,-0.0526
6,ATTGGCAC,-0.247
7,GATACGGA,0.348
8,CTACGGAC,0.261
9,TAAGATCA,-0.324
10,GCAAGCCA,-0.216
11,GAATATGC,0.0861
12,AGACACCA,-0.0872
13,ACCCCGCA,0.285
14,CCTGTTGA,-0.121
15,AGAGTACA,-0.116
16,CGAACTGA,-0.0154
17,CGCCACTA,-0.093
18,CGGAGACG,0.415
19,TCCACAGA,-0.111
20,GAACTCCA,0.0324
21,CGCCTAAG,-0.0793
22,ATCGTGCG,0.0767
